The source gives no read counts; variants with many changes may rest on few reads.
B1: LINE1-mini (parent)
chain: GGCAGAGCUCAACACAGCGUGGCAAAGUGGCUGUGGCUAGACUGCC

Variants of: B1
Assay: self-cleavage, relative activity (ratio to wild type); higher = more cleavage; in vitro, sequencing; the parent is a self-cleaving ribozyme
GGCAGAGCUCAACACGGUGUGGCACAGUGCUUGUGGCUAGACUGCC [A16G C18U A25C G30C C31U] gave a self-cleavage of 0.02.
In the case of GGCAGAGCUCAACACGGCGUGGCAAAGUGGUUAUGUCUAGACUGCU [A16G C31U G33A G36U C46U], the self-cleavage is reported as 0.02.
In the case of GGCAGAGCUCAACACGGCGUGGCAAAGUUGCUUUGGCUAGACUGCC [A16G G29U G33U], the self-cleavage is reported as 0.03.
For GGCAGAGCUCAACACCGCGAGGCAAACUGGCUGUGGCUAGACUGCC [A16C U20A G27C], the self-cleavage was 0.15.
GGCAGAGCUCAACACUGCGUGGAAAACUGGCUGUGGCUGAACUGCC [A16U C23A G27C A39G G40A] showed a self-cleavage of 0.06.
GGCAGAGCUCAACACGGCGUGGCAAGGUAGCUGUGGCUAGACUGCG [A16G A26G G29A C46G] showed a self-cleavage of 0.99.
Variant GGCAGAGCUCAACACGCCGUGGCAAGGUGGCUGUGGCUAGACUGCC [A16G G17C A26G] has a self-cleavage of 0.11.
GGCAGAGCUCAACACGGCGUGGCAAAGUCCCUGUGGCUAGACAGCC [A16G G29C G30C U43A] gave a self-cleavage of 0.01.
With GGCAGAGCUCAACACCGCGGGGCAAAGUGGCUGUGGCGAGACUGCC [A16C U20G U38G] the self-cleavage was 0.
GGCAGAGCUCAACACGGCGUGGCAAAGUGGCUUUUGCUAGACUGCC [A16G G33U G35U] gave a self-cleavage of 0.
Work on GGCAGAGCUCAACACCGCGUGGCAAAGUGGCUGUGGCUAGACUAUC [A16C G44A C45U] yielded a self-cleavage of 0.03.
Variant GGCAGAGCUCAACACGGUGUGGCAAAGUUGCUGUGGCUAGACUGCC [A16G C18U G29U] has a self-cleavage of 1.56.
With GGCAGAGCUCAACACUGGGUGGCAAAGUGGCUGUCGCAAGACGGCC [A16U C18G G35C U38A U43G] the self-cleavage was 0.22.
Variant GGCAGAGCUCAACACGGCUUGGCAAAGUUGCUGUGCCUAGACGGCC [A16G G19U G29U G36C U43G] has a self-cleavage of 0.
In the case of GGCAGAGCUCAACACUGCGUGGGAAAGUGGCUGUGGCUAGUCUGCC [A16U C23G A41U], the self-cleavage is reported as 0.11.
Work on GGCAGAGCUCAACACGGCGUGGCAAAGUGGCUAUGGCUAGACUGCU [A16G G33A C46U] yielded a self-cleavage of 0.06.
In the case of GGCAGAGCUCAACACGGCGUGUCAAACCGGCUGUGGGUAUACUGCC [A16G G22U G27C U28C C37G G40U], the self-cleavage is reported as 0.01.
Variant GGCAGAGCUCAACACGGUGUGGCAAAGUGCCUGUAGCUAGACUGCC [A16G C18U G30C G35A] has a self-cleavage of 0.02.
For GGCAGAGCUCAACACCGCGUGUCAAAUUGGCUGUGGCUAGACUGCC [A16C G22U G27U], the self-cleavage was 0.44.
GGCAGAGCUCAACACUGCGUGGCGAAGUGACUGGGGCUAGACUGCU [A16U A24G G30A U34G C46U] gave a self-cleavage of 0.08.
For GGCAGAGCUCAACACGGCGUGGCAAAGUGGUUGUGGAUAGACUGCC [A16G C31U C37A], the self-cleavage was 0.03.
Work on GGCAGAGCUCAACACGGUGUCGCAAAUUGGCUGUGGCUAGACUGCC [A16G C18U G21C G27U] yielded a self-cleavage of 0.75.
Variant GGCAGAGCUCAACACGGCGUGGCAAAGUGGAUCUGGCUAGAAUGCC [A16G C31A G33C C42A] has a self-cleavage of 0.01.
Variant GGCAGAGCUCAACACGGCGUGGCAAAUUGGCUGUGGCUAGACAGCC [A16G G27U U43A] has a self-cleavage of 0.1.
Variant GGCAGAGCUCAACACCGCGUGGCAAAGUGGCUGAGCCUAGACUGCC [A16C U34A G36C] has a self-cleavage of 0.04.
GGCAGAGCUCAACACGGCGUAGCAAAGUGGCUGUGGCUAGGCUGCC [A16G G21A A41G] showed a self-cleavage of 0.17.
Variant GGCAGAGCUCAACACGGAGCGGCAAAGUGGUUGUGGCUAGACUGCC [A16G C18A U20C C31U] has a self-cleavage of 0.02.
Work on GGCAGAGCUCAACACGGCGUGGCAAAGCGACUGUGGCUAGACUGAC [A16G U28C G30A C45A] yielded a self-cleavage of 0.39.
For GGCAGAGCUCAACACGGCGUCGCUAAGUGGUUGUGGCUAGAAUGCA [A16G G21C A24U C31U C42A C46A], the self-cleavage was 0.
GGCAGAGCUCAACACUGCGUGGUAAAGUGGCGGUUACUACAAUGCC [A16U C23U U32G G35U G36A G40C C42A] showed a self-cleavage of 0.11.
GGCAGAGCUCAACACCGCGUGGCAAAGUGGCUGUGGCUAUUAUGCC [A16C G40U A41U C42A] showed a self-cleavage of 0.01.
Variant GGCAGAGCUCAACACGGCCUGGCAAGGUGGCUGUUGCUAGACUGCC [A16G G19C A26G G35U] has a self-cleavage of 0.04.
Work on GGCAGAGCUCAACACGGCGUGGCAAUGUGGCUGUGGCCAGACUGCC [A16G A26U U38C] yielded a self-cleavage of 0.1.
With GGCAGAGCUCAACACGGCGUGGCAAAGUCGUUGUGGCUAGACUGCC [A16G G29C C31U] the self-cleavage was 0.02.
GGCAGAGCUCAACACCGCGUGUCAAAGUGGGUGUAGCGAGACUGCC [A16C G22U C31G G35A U38G] showed a self-cleavage of 0.
Variant GGCAGAGCUCAACACCGCGUGGCAAAGUGGCUGGAGCUAUACUGCC [A16C U34G G35A G40U] has a self-cleavage of 0.01.
Work on GGCAGAGCUCAACACGGCGUGGCAAAGUGGCGCUGGCUAGACUGCC [A16G U32G G33C] yielded a self-cleavage of 0.02.
GGCAGAGCUCAACACUGUGUGGCAAAGUGGCUGUUGCUAGACUGCC [A16U C18U G35U] showed a self-cleavage of 0.07.
With GGCAGAGCUCAACACGGCGUGGCAAAGUGCUUGUGGCUAGACUGCC [A16G G30C C31U] the self-cleavage was 1.11.
For GGCAGAGCUCAACACGGCGUGGCAAAGUGUCUGUGGCUUGACUGCC [A16G G30U A39U], the self-cleavage was 0.09.
GGCAGAGCUCAACACUGGGUGGCAAAGUAGCUGUGGGUAGGCUGCC [A16U C18G G29A C37G A41G] gave a self-cleavage of 0.06.
With GGCAGAGCUCAACACGGCGUGGCAAAGUAGCUGUGCCUAGACUGCC [A16G G29A G36C] the self-cleavage was 0.19.
In the case of GGCAGAGCUCAACACGGCGUGGCACAGUGACUAUGGCUUAACUGCC [A16G A25C G30A G33A A39U G40A], the self-cleavage is reported as 0.01.
GGCAGAGCUCAACACGGCGUGGCAAAGUGACUGUCGCUAGACUGCC [A16G G30A G35C] showed a self-cleavage of 0.
In the case of GGCAGAGCUCAACACGGCGUCGCAAAGUGGAUAUGGCUAGACUGCC [A16G G21C C31A G33A], the self-cleavage is reported as 0.
For GGCAGAGCUCAACACGGCGUGGCAGAGUGGCUGUGGCUAGAUUGCC [A16G A25G C42U], the self-cleavage was 0.08.
Variant GGCAGAGCUCAACACGGCGUGGCAAAGUGGCUGUAACUAAUCUGCC [A16G G35A G36A G40A A41U] has a self-cleavage of 0.22.
In the case of GGCAGAGCUCAACACGCCGUGGCAAAGUAGCUGUGGCUAGACUGCC [A16G G17C G29A], the self-cleavage is reported as 0.03.
Variant GGCAGAGCUCAACACUGCGUGGGAGAGUGCCUGUGGCUAGACUGCC [A16U C23G A25G G30C] has a self-cleavage of 0.23.
For GGCAGAGCUCAACACUGCGUGGCAGAGUGGCUGUGGCUAGACUGUC [A16U A25G C45U], the self-cleavage was 0.08.
GGCAGAGCUCAACACGCCGUGGCAAAGUGGCAGUGGCUAGACUGCC [A16G G17C U32A] showed a self-cleavage of 0.24.
In the case of GGCAGAGCUCAACACCGCGUGGCAAAAUGGCUGUGGCUAGAUUGCC [A16C G27A C42U], the self-cleavage is reported as 0.09.
GGCAGAGCUCAACACGGCGUGGCAAAGUGACUGUGGCUAGACCGCA [A16G G30A U43C C46A] showed a self-cleavage of 0.03.
Variant GGCAGAGCUCAACACCGCGUGGCAAAGUGCCUGUGGCUAGAGUGCC [A16C G30C C42G] has a self-cleavage of 0.05.
With GGCAGAGCUCAACACCGCGUGGCAAAGUGGCUUUGGCUACACCGCC [A16C G33U G40C U43C] the self-cleavage was 0.01.
GGCAGAGCUCAACACCGCGUGGCAAACUGGCUGUGGUUAGACUGCC [A16C G27C C37U] gave a self-cleavage of 0.24.
